The campaign covered roughly 310,000 compounds. About 18,000 (5.8%) were called active. The shares of active, inactive and inconclusive entries below differ from those in the screen. The call rests on the fitted dose curve; in most records, active means well fitted inhibition curve with a large enough effect; inconclusive means small, poorly fitted or top-dose-only effect, or another doubt; inactive means no such curve, though single readings can be large or run the other way. No potency is given beside an inconclusive call; the fits are too rough.
assay: Primary qHTS for delayed death inhibitors of the malarial parasite plastid, 48 hour incubation; settings: P. falciparum luciferase growth in erythrocytes; series mostly up to 28.7 µM
Method in brief: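 Growth was read as firefly luciferase luminescence after a 48 h, 37 C, 5% CO2 exposure of compounds to reporter-bearing P. falciparum cultures (0.1% parasitemia, 2% hematocrit final) in Albumax-supplemented RPMI 1640.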
Potency means the concentration at half of the fitted maximal effect; tags describe the fitted curve by direction and shape.

Structure (SMILES)	Potency
O=C(O)c1cc(Cl)ccc1-c1ccc(/C=C/c2cc(C(F)(F)F)[nH]c(=O)n2)o1	inactive
CCn1c(=O)c(C(=O)CN2CCCc3ccccc32)c(N)n(Cc2ccccc2)c1=O	active: 9.28 µM
CCOCCCn1c(SCc2nc3ccccc3s2)nc2ccccc2c1=O	inconclusive [inhibitor, partial curve, poor fit]
Cc1cccc2c1-c1sc(C(=O)NCCCN3CCC(C)CC3)cc1CO2	inconclusive [inhibitor, single point]
Cc1ccc[n+](CC(=O)/C=C2\N(C)c3ccccc3C2(C)C)c1	inconclusive [inhibitor, partial curve, poor fit]
COc1ccc(/C=C/C2=Nc3ccccc3NC(C)(C)C2)cc1OC	inconclusive [inhibitor, partial curve, poor fit]
CCn1cc(C(=O)Nc2ncccc2O)c(=O)c2cc(F)c(N3CCN(C(=O)c4ccco4)CC3)cc21	inconclusive [inhibitor, partial curve, poor fit]
O=C(Cc1ccccc1)NN1C(=O)c2ccccc2C1=O	inactive
Cc1cccc(NC(=O)C2(c3ccc([N+](=O)[O-])cc3)CCCC2)c1	inconclusive [inhibitor, partial curve]
N#CCC(=O)NNC(=S)NC(=O)C(c1ccccc1)c1ccccc1	inconclusive [inhibitor, partial curve, poor fit]
CC(=O)C1=C(c2cccc([N+](=O)[O-])c2)N(C(C)=O)n2c(C)nnc2S1	inconclusive [inhibitor, full curve, poor fit]
O=C(N/N=C/c1c(F)c(F)c(F)c(F)c1F)c1ccc(Cn2cc(Br)cn2)o1	inactive
CC(C)N(CCNCc1nnc(-c2ccccc2)o1)C(C)C	inactive
O=C(NC12CC3CC(CC(C3)C1)C2)c1ccco1	inconclusive [inhibitor, partial curve]
O=C(Cn1cnc2ccccc2c1=O)Nc1nnc(SCc2ccccc2)s1	inactive
COc1ccccc1-c1nnc2n1N=C(c1ccc(O)c(O)c1)CS2	inconclusive [inhibitor, partial curve, poor fit]
OCCNc1nc(Nc2ccc(Br)cc2)nc2ccccc12	active: 0.928 µM
COC(=O)c1ccc(N2CCN(C)CC2)c(NC(=O)COc2ccccc2)c1	inconclusive [inhibitor, partial curve]
Cc1ccc(NC(=S)N/N=C/c2c(Cl)cccc2Cl)c(C)c1	inactive
